Source: PubChem BioAssay (Tox21)
The shares of active, inactive and inconclusive entries below differ from those in the screen. For some assays here: Potencies beside an inconclusive call are fits to weak or partial responses and may not hold up. Active and inactive are the calls of the source. Unless noted, calls come from the whole dose curve; as a rule, active = well fitted curve in the direction sought with a large enough effect in the repeat runs; inconclusive = weak or mixed curves; inactive = no such curve, though single readings can be large; an effect the other way counts as inactive or inconclusive.

Tests used:
[1] = qHTS RealTime-Glo MT Cell Viability Assay in HepG2 cells - 24 hour (AID 1224867); note: nearly all actives have a fitted effect of over 50% in size; note: potency is the fitted concentration of half-maximal effect
Procedure, shortened: (§1)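 Cells + NanoLuc/prosubstrate dispensed (600 cells/well) → 5 h at 37 C/5% CO2 → compounds in DMSO transferred → 40 h incubation at 37 C, luminescence read at 0, 8, 16, 24, 32, 40 h.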

[2] = qHTS RealTime-Glo MT Cell Viability Assay in HEK293 cells - 16 hour (AID 1224872); note: top concentration of the series differs between compounds; % is set by controls: 0 for no effect and ±100 for the full control effect; nearly all actives have a fitted effect of over 50% in size
Procedure, shortened: (§2)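 Tox21 10K qHTS, HEK293, 600 cells/well, RealTime-Glo reagent co-dispensed with cells; 5 h preincubation, compound by pintool, 37 C, luminescence at 0–40 h.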

[3] = qHTS RealTime-Glo MT Cell Viability Assay in HEK293 cells - 40 hour (AID 1224874); conditions: RealTime-Glo luminescence; max response: stronger effect = lower value; note: nearly all actives have a fitted effect of over 50% in size; note: potency is the fitted concentration of half-maximal effect; for max response: % is set by controls: 0 for no effect and ±100 for the full control effect
Procedure, shortened: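 HEK293 cells mixed with RealTime-Glo reagents (NanoLuc plus cell-permeant prosubstrate) at 600 cells/well, preincubated 5 h at 37 C/5% CO2, then given 23 nL compound in DMSO. Nonlytic luminescence from viable cells was read at 0, 8, 16, 24, 32 and 40 h.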

[4] = qHTS RealTime-Glo MT Cell Viability Assay in HEK293 cells - 32 hour (AID 1224868); note: potency is the fitted concentration of half-maximal effect; nearly all actives have a fitted effect of over 50% in size
Procedure, shortened: as §2

[5] = A CellTox Green Cytotoxicity Assay to monitor cytotoxicity in HEK293 cells - 40 hour (AID 1224871); note: potency is the fitted concentration of half-maximal effect; nearly all actives have a fitted effect of over 45% in size
Procedure, shortened: (§3)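 HEK293 cells premixed with CellTox Green dye were seeded at 600 cells/well and left 5 h at 37 C/5% CO2 before pin transfer of 23 nL compound in DMSO. Fluorescence from dye bound to dead-cell DNA was read during 40 h treatment.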

[6] = A CellTox Green Cytotoxicity Assay to monitor cytotoxicity in HEK293 cells - 24 hour (AID 1224875); note: potency is the fitted concentration of half-maximal effect; nearly all actives have a fitted effect of over 45% in size
Procedure, shortened: as §3

[7] = qHTS RealTime-Glo MT Cell Viability Assay in HepG2 cells - 32 hour (AID 1224877); note: potency is the fitted concentration of half-maximal effect; nearly all actives have a fitted effect of over 55% in size
Procedure, shortened: as §1

[8] = A CellTox Green Cytotoxicity Assay to monitor cytotoxicity in HepG2 cells - 24 hour (AID 1224878); note: % is set by controls: 0 for no effect and ±100 for the full control effect; nearly all actives have a fitted effect of over 45% in size
Procedure, shortened: (§4)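 HepG2 cells were seeded together with the CellTox Green dye at 600 cells/well, left 5 h at 37 C/5% CO2, then given compounds in DMSO. Fluorescence from dye bound to dead-cell DNA was read repeatedly over 40 h of treatment at 37 C.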

[9] = A CellTox Green Cytotoxicity Assay to monitor cytotoxicity in HepG2 cells - 40 hour (AID 1224879); note: potency is the fitted concentration of half-maximal effect; nearly all actives have a fitted effect of over 40% in size
Procedure, shortened: as §4

[10] = A CellTox Green Cytotoxicity Assay to monitor cytotoxicity in HEK293 cells - 32 hour (AID 1224881); note: potency is the fitted concentration of half-maximal effect; nearly all actives have a fitted effect of over 40% in size
Procedure, shortened: as §3

[11] = qHTS assay to identify small molecule agonists of the estrogen related receptor (ERR) signaling pathway from Tox21 library (AID 1224849; calls by dose curve; note: % is set by controls: 0 for no effect and ±100 for the full control effect; nearly all actives have a fitted effect of over 15% in size); conditions: ERR reporter cell line, ONE-Glo luciferase, 18 h; at 92.4 µM (top of the series) unless noted
Procedure, shortened: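 ERR reporter cell line (NTP) seeded, rested 6 h at 37 C/5% CO2, then pinned with Tox21 compounds in DMSO. After 18 h at 37 C, ONE-Glo luciferase luminescence was read following 30 min at room temperature.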

[12] = qHTS RealTime-Glo MT Cell Viability Assay in HepG2 cells - 8 hour (AID 1224873); note: % is set by controls: 0 for no effect and ±100 for the full control effect; nearly all actives have a fitted effect of over 55% in size
Procedure, shortened: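 Real-time viability: cells seeded at 600 per well together with NanoLuc and cell-permeant prosubstrate, compounds added after 5 h incubation. Luminescence tracked at 0, 8, 16, 24, 32 and 40 h of exposure.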
Tags give direction and shape of the fitted curve.

**Q.** With CN(C(=O)c1c(O)c2ccccc2n(C)c1=O)c1ccccc1 as the compound, how does the Potency [1] read?
**A.** inactive

**Q.** For COC(=O)C(C)=O, which Potency [1] is on record?
**A.** inactive

**Q.** What about the Potency [2] of the same compound?
**A.** inactive

**Q.** And the max response [3]?
**A.** inactive: -0.909%

**Q.** For CCCC[P+](C)(CCCC)CCCC, which Potency [1] is on record?
**A.** inactive

**Q.** What about the Potency [4] of the same compound?
**A.** inconclusive: 22.2 µM [cytotoxic, partial curve, poor fit]

**Q.** And the Potency [2]?
**A.** inactive

**Q.** And the Potency [3]?
**A.** inconclusive: 22.2 µM [cytotoxic, partial curve, poor fit]

**Q.** Which Potency [1] does the source give for CC1=C(/C=C/C(C)=C\C=C\C(C)=C\C(=O)O)C(C)(C)CCC1 here?
**A.** inconclusive: 21.9 µM [falling, partial curve, poor fit]

**Q.** And the Potency [5]?
**A.** active: 49 µM

**Q.** What about the Potency [6] of the same compound?
**A.** inconclusive: 61.6 µM [activator, partial curve, poor fit]

**Q.** And the Potency [7]?
**A.** inconclusive: 5.49 µM [cytotoxic, partial curve, poor fit]

**Q.** What about the Potency [8] of the same compound?
**A.** inactive

**Q.** And the Potency [9]?
**A.** inconclusive: 5.49 µM [activator, full curve, poor fit]

**Q.** What about the Potency [10] of the same compound?
**A.** inconclusive: 54.9 µM [activator, single point]

**Q.** Which activity change, positive = activation [11] does the source give for COc1cc(NS(=O)(=O)c2ccc(N)cc2)nc(OC)n1 here?
**A.** inconclusive: 19% [at 42.5 µM]

**Q.** And the Potency [12]?
**A.** inactive

**Q.** With O=C1c2ccccc2C(=O)c2c(O)ccc(O)c21 as the compound, how does the Potency [1] read?
**A.** inactive

**Q.** What about the Potency [5] of the same compound?
**A.** inconclusive: 34.7 µM [activator, partial curve, poor fit]

**Q.** And the Potency [6]?
**A.** inconclusive: 30.9 µM [activator, partial curve]

**Q.** And the Potency [9]?
**A.** active: 24.5 µM

**Q.** What about the Potency [10] of the same compound?
**A.** inconclusive: 30.9 µM [activator, partial curve]

**Q.** Which Potency [1] does the source give for C[C@@H]1[C@H](O)[C@@H](C)/C=C/C=C\C=C\C=C\C=C\C=C\C=C\[C@H](O[C@@H]2O[C@H](C)[C@@H](O)[C@H](N)[C@@H]2O)C[C@@H]2O[C@](O)(C[C@@H](O)C[C@@H](O)[C@H](O)CC[C@@H](O)C[C@@H](O)CC(=O)O[C@H]1C)C[C@H](O)[C@H]2C(=O)O (stereo in doubt) here?
**A.** inactive

**Q.** What about the Potency [5] of the same compound?
**A.** inconclusive: 38.9 µM [activator, single point]

**Q.** What about the Potency [6] of the same compound?
**A.** inconclusive: 55 µM [activator, single point]

**Q.** And the Potency [10]?
**A.** inconclusive: 55 µM [activator, single point]
